Results: PubChem BioAssay AID1508624 (National Center for Advancing Translational Sciences (NCATS), 2021)
Out of some 48,000 compounds screened, about 120 (0.25%) were called active. Roughly 4% stayed inconclusive and do not appear here. Calls come from the whole dose curve; as a rule, active = well fitted activation curve with a large enough effect; inconclusive = small, poorly fitted or top-dose-only effect, or another doubt; inactive = no such curve, though single readings can be large or run the other way. The list shows a part of the results.

Assay: Primary qHTS for Identification of Small Molecule Activators of Huntingtin-Antisense Promoter Activity; note: nearly all actives have a fitted effect of over 55% in size
Settings: HEK293 HTT-AS promoter firefly luciferase reporter (activity 0% = vehicle and -100% = no light), 24 h; series mostly up to 57.5 µM; activity change, positive = activation: at the top concentration
Method in brief: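 HEK293 cells carrying firefly luciferase reporters were seeded at 2,500 per well in Opti-MEM and cultured for 24 h. They were then treated with compounds at up to 57.5 uM final for 24 h at 37 degrees C before Dual-Glo luminescence readout.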

Activity change, positive = activation, inactive:
O=C(CN1C(=O)C2(SCC(=O)N2c2ccc(F)c(F)c2)c2ccccc21)Nc1cccc(Cl)c1 (stereo not given) -35.3%
CCOc1ccc(NC(=O)CCNS(=O)(=O)c2cccs2)cc1 8.55%
COc1c(C)cc(NS(=O)(=O)c2ccc3c(c2)OCCO3)cc1C -32.2%
COc1ccc(CNC(=O)C2CCN(C(=O)N3CCOc4ccc(Cl)cc43)CC2)cc1 -33.4%
Cc1ccc(C)c(S(=O)(=O)n2nc(C)c(S(=O)(=O)N3CCCCCC3)c2C)c1 -3.16%
COc1ccc(NC(=O)CCCN2C(=O)CCn3nc(-c4cn(C)c5ccccc45)cc32)cc1 -15.5%
Cc1cc(Nc2ccccc2O)nc(C)n1 1.48%
COc1cc(NC(=O)c2nnn(CC(=O)Nc3cc(C)ccc3C)c2N)cc(OC)c1 -16.5%
CCOc1cc(C(=O)Nc2ccc3c(c2)n(C)c(=O)c(=O)n3C)cc(OCC)c1OCC -12.7%
CCOc1ccc(-n2c(SCC(=O)Nc3ccc(CC)cc3)nc3c(oc4ccccc43)c2=O)cc1 -18%
CCOC(=O)CCc1c(C)nc2cc(-c3cc(OC)cc(OC)c3)[nH]n2c1=O -1.7%
Cc1nc2ccc(S(=O)(=O)N(CC(=O)Nc3ccc(F)cc3)Cc3ccccc3)cc2s1 -18.3%
COC(=O)c1sc2cccc(F)c2c1S(=O)(=O)N1CCN(c2cccc(C)c2)C(C)C1 (stereo not given) -17%
CC1CCc2c(sc(NC(=O)CCCOc3ccccc3)c2C(N)=O)C1 (stereo not given) -1.44%
CC(C)(C)OC(=O)N1CCC(c2c(C(=O)N3CCN(C(=O)c4ccco4)CC3)cnn2-c2ccc(F)cc2F)CC1 -18%
CCCOC(=O)c1c(NC(=O)c2cc3ccccc3c(=O)o2)sc2c1CCC(C)C2 (stereo not given) 1.25%
CCOc1ccc(-n2nc3ccc(NC(=O)Cc4ccccc4)cc3n2)cc1 -94.3%
COc1ccc(-c2cn3c(C)c(C(=O)Nc4cc(C)cc(C)c4)sc3n2)cc1 -8.22%
CCOC(=O)c1cnc2c(Cl)cc(Cl)cc2c1Nc1ccccc1OC -8.39%
COC(=O)c1ccc(Cn2nnc3c(=O)[nH]c(C4CCCN(S(=O)(=O)c5ccccc5Cl)C4)nc32)cc1 (stereo not given) 7.09%
Cc1ccc(-c2nnc3c4ccccc4c(C)nn23)cc1NC(=O)c1ccccc1 -3.94%
CCc1cccc(NC(=O)CN(C)S(=O)(=O)c2ccc3[nH]c4c(c3c2)CCCC4)c1 -27.1%
CCc1ccccc1-n1c(N)c(C(=O)OC)c2nc3ccccc3nc21 -30.1%
Cc1cc(-c2ccc(C)c(S(=O)(=O)N3CCOc4ccc(Cl)cc43)c2)on1 -34.6%
CCc1ccccc1NC(=O)Cn1c(=O)ccc2cc(S(=O)(=O)N3CCCC3)ccc21 -19.2%
CCCSc1ncc(Cl)c(C(=O)N(Cc2ccc(Cl)cc2)Cc2ccco2)n1 -42.4%
CCOC(=O)N1CCc2c(sc3c2c(=O)n(-c2ccc(CC)cc2)c(=O)n3C)C1 -0.751%
COc1ccc(OCc2ccc(-c3nc(C#N)c(N4CCCCC4)o3)o2)cc1 -30.2%
Cc1ccccc1OCC(=O)N1CCC(c2nc3ccccc3s2)CC1 -11.6%
COc1ccc(C(=O)c2c(N)c(C(=O)Nc3cccc(OC)c3)c3ccccn23)cc1 3.45%
Cc1c(C(=O)N(C)C)sc2c1c(=O)n(-c1ccc(Cl)cc1)c(=O)n2CC(=O)C(C)(C)C -9.8%
Cc1ccc(NC(=O)Cn2nc(N3CCN(c4ccccc4)CC3)ccc2=O)cc1F -19.7%
COc1ccc(-n2c(=O)c3sc4ccccc4c3n(Cc3ccccc3C)c2=O)cc1OC -4.8%
CCC1CCCCN1S(=O)(=O)c1cc2c3c(c1)CC(=O)N3CCC2 (stereo not given) -9.6%
CCOC(=O)c1c(C)[nH]c(C)c1S(=O)(=O)N1CCC(C(=O)NCc2cccc(OC)c2)CC1 -1.37%
COc1ccc(S(=O)(=O)N2Cc3ccccc3CC2C(=O)Nc2ccc(C)cc2C)cc1OC (stereo not given) -9.32%
CCC(C(=O)O)n1ccc2cc(S(=O)(=O)N3CCCCC3)ccc21 (stereo not given) -12.9%
CCOC(=O)c1c(C)oc2ncnc(Nc3cc(C)cc(C)c3)c12 -6.8%
O=C(NCCCN1CCN(c2cccc(Cl)c2)CC1)c1cnn(-c2ccc(F)cc2)c1-n1cccc1 -39.6%
O=C(NCCc1csc2nc(-c3ccccc3F)nn12)C(=O)Nc1cc(F)ccc1F 3.06%
CCC1=C(c2ccc(C)cc2)S(=O)(=O)N=C1N1CCC(C(=O)NCc2ccc(N(C)C)cc2)CC1 -40.2%
CCN1C(=O)c2ccccc2Sc2ccc(NC(=O)Nc3cccc([N+](=O)[O-])c3C)cc21 -45.8%
Cc1ccc(N2CC(NC(=O)c3cccc(Cl)c3)CC2=O)cc1C (stereo not given) -16.9%
COc1ccc(N(C(=O)c2ccc(C(C)(C)C)cc2)S(=O)(=O)c2ccc(Cl)cc2)cc1 -9.41%
COc1ccc(CNC(=O)c2cnn3c(C)c(Cc4c(F)cccc4Cl)c(C)nc23)cc1 -4.94%
COc1cc(O)cc(O)c1 -3.58%
Cc1cccc(N2CCN(C(=O)c3cnc(N4CCCC4)nc3C)CC2)c1C -14.8%
COc1ccc(C2c3c(n(C)c4ccccc34)C(=O)N2CC(=O)Nc2cccc(Cl)c2C)cc1 (stereo not given) -18.9%
CCc1ccccc1Nc1sc(C(=O)c2cccc(OC)c2)c(N)c1S(=O)(=O)c1ccccc1 -27.9%
CC1CCCN(C(=O)Cn2ncc3c([nH]c4ccccc43)c2=O)C1 (stereo not given) -15.9%
CCCCOc1ccc(C(=O)NCc2nnnn2-c2ccc(C)c(C)c2)cc1 -14.8%
COC(=O)c1c(NC(=O)/C(C#N)=C/c2ccccc2)sc2c1C(C(=O)OC)CC2 (stereo not given) 7.97%
CCCn1c(CN2CCN(c3ccc(OC)cc3)CC2)nc2c1c(=O)[nH]c(=O)n2C -4.76%
COc1cc(-c2cc3n(C)c(C)c(CCC(=O)O)c(=O)n3n2)cc(OC)c1OC 0.92%
CCOc1ccc(NC(=O)C2CCN(C(=O)N3CC(C)Oc4ccc(Cl)cc43)CC2)cc1 (stereo not given) -32.2%
Cc1cc2oc(C(=O)Nc3ccc(S(=O)(=O)N(C)Cc4ccccc4)cc3)cc(=O)c2cc1C -6.13%
CC(C)CC(=O)Nc1nnc(S(=O)(=O)N(CC(C)C)c2ccccc2)s1 -12.2%
Cc1ccc(CNC(=O)CCC(=O)N2CC3CCCN3c3ccccc32)cc1 (stereo not given) 4.93%
Cn1c(=O)c2c(ncn2CC2OCCO2)n(C)c1=O 3.04%
O=C(Nc1ccc2oc(-c3cc(Br)ccc3Cl)nc2c1)c1cc2ccccc2o1 -43.4%
Cc1ccc(N2CCN(C(=O)C3CCN(S(=O)(=O)c4ccc5c(c4)oc(=O)n5C)CC3)CC2C)cc1 (stereo not given) -36.2%
CC(=O)c1ccc(NC(=O)CCc2c(C)nn(-c3ccc(N4CCOCC4)nn3)c2C)cc1 16.8%
Cc1cc(C)c(S(=O)(=O)NCCc2cc3ccc(C)c(C)c3[nH]c2=O)c(C)c1 -4.67%
O=c1c2sc3ccccc3c2n(Cc2cccc(Cl)c2)c(=O)n1Cc1ccco1 -31%
Cc1ccccc1OCCn1c(=N)n(C(C)C)c2ccccc21 -20.9%
Cc1cc(C)cc(-n2c(C)nc3cc(C(=O)O)ccc32)c1 -3.42%
Cc1cccc(OCc2nc(CC(=O)Nc3ccc(C)c(C)c3)cs2)c1 -3.3%
CCOc1ccc(NC(=O)CCc2c(C)nc3nc(C)nn3c2C)cc1 -7.33%
CCOC(=O)c1c(C)oc2nc(C)nc(NCCCN3CCN(c4ccccc4)CC3)c12 -19.9%
COC(=O)C(CCSC)NC(=O)C1CCN(c2ncnc3c2nc2n3CCCCC2)CC1 (stereo not given) 13.4%
Fc1ccc(-n2ncc3c(NC4CCCCCC4)ncnc32)cc1 33.7%
CCNC(=O)CC1C(=O)N(c2ccc(F)cc2)C(=O)N1CCOC (stereo not given) 4.16%
COc1ccccc1CNC(=O)c1ccc(Cn2c(SCc3ccccc3)nc3cccnc32)cc1 -1.57%
CCOc1ccc(C(=O)N2CCC(c3nnc(-c4ccccc4OC)o3)CC2)cc1 13.8%
CCCCCCCC(=O)OCC(COC(=O)CCCCCCC)OC(=O)CCCCCCC -3.26%
N#Cc1ccccc1CN1C(=O)c2ccccc2Sc2ccc(C(=O)OCc3ccco3)cc21 -41.7%
O=C(CCc1ccccc1)NCc1nc2cccnc2n1Cc1ccc(F)cc1 -7.43%
CCOC(=O)N1CCc2c(sc3c2c(=O)n(-c2ccccc2)c(=O)n3CC(=O)Nc2ccc(OC)cc2OC)C1 21.8%
COc1ccc(NC(=O)CN2CCN(Cc3ccccc3)S2(=O)=O)c(OC)c1 -0.689%
CCOc1ccc(OCC)c(NC(=O)c2cc(S(=O)(=O)N3CCCC3)cn2C)c1 -19.3%
CCc1ccccc1N1CC(c2nc3ccccc3n2CCCOc2ccc(Cl)cc2)CC1=O (stereo not given) 7.08%
COc1cc(OC)c(NC(=O)c2csc3c2CCC(C)C3)cc1Cl (stereo not given) 1.67%
CCOc1ccccc1NC(=O)Cn1c(=O)n(CCC(=O)NCc2ccc3c(c2)OCO3)c(=O)c2ccccc21 -5.23%
COc1ccccc1CNC(=O)c1cc2cc3ccc(Cl)cc3nc2o1 -9.65%
COc1ccc(CCNC(=O)CCc2c(C)nc3c(c(C)nn3-c3ccc(C)c(C)c3)c2C)cc1OC -8.35%
COc1ccccc1N1CCN(c2ccc(NC(=O)c3ccc(C)cc3)cc2C(=O)O)CC1 6.81%
Cc1c(CNC2CCCCC2)c(C(=O)O)c(C)n1Cc1c(F)cccc1Cl -10.1%
Cc1ccc(NC(=O)CCCn2c(=O)c3cccn3c3ccccc32)c(Cl)c1 5.78%
CCOc1ccc(NC(=O)C(CC)n2c(=O)c(-c3ccccc3NC(C)=O)nc3ccccc32)cc1 (stereo not given) -34.4%
Cc1ccc(CNC(=O)Cn2cc(S(=O)(=O)Cc3ccccc3Cl)c3ccccc32)cc1 -39.4%
O=C(CCOc1ccccc1)N(Cc1cccnc1)c1nc2c(F)cc(F)cc2s1 -28.4%
COc1ccc(CNC(=O)c2cnc3sc(N4CCOCC4)nn3c2=O)cc1 -9.62%
COc1cc(OC)c(NC(=O)N2CCSc3ccccc32)cc1Cl -38.7%
COc1ccc(C(=O)Nc2cc3c(cc2C(=O)c2ccccc2Cl)OCCO3)cc1 -8.76%
O=C(CSC1=Nc2ccccc2C2=NC(CCC(=O)NC3CCCCC3)C(=O)N12)Nc1cccc(C(F)(F)F)c1 (stereo not given) -27.7%
